# Source: the supplement of paper PMC8291772
# ± gives the standard error. Some of the results follow.
# Biological target: terminal deoxynucleotidyl transferase (calf thymus) (UniProt P06526)
# Test: TdT poly-dT extension signal (Cy3 hybridisation fluorescence, uncapped minus capped) (fluorescence a.u.); higher = more efficient initiation of TdT extension
# Settings: initiator chemistry: 2'-O-methyl-RNA, free 3'-OH (5'-tethered via HEG linker)
# Description: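 All mono- to pentamer 2'-O-methyl-RNA initiators were made by photolithographic in situ synthesis (3'-NPPOC amidites, reverse direction, free 3'-OH) on glass on a hexaethylene glycol linker. Each was made in uncapped and DMTr-dT-capped versions, about 11 replicates each. Arrays were extended with calf thymus TdT (0.2 U/uL), 100 uM dTTP and 0.25 mM CoCl2 for 120 min at 37 C, hybridised with an rA18-Cy3 probe and scanned at 532 nm. The value is the mean uncapped minus the mean capped signal. IDs are written 3'->5' and are reversed to 5'->3'; all nucleotides are 2'-OMe.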
# Sequence of UniProt P06526 (P06526 whole entry): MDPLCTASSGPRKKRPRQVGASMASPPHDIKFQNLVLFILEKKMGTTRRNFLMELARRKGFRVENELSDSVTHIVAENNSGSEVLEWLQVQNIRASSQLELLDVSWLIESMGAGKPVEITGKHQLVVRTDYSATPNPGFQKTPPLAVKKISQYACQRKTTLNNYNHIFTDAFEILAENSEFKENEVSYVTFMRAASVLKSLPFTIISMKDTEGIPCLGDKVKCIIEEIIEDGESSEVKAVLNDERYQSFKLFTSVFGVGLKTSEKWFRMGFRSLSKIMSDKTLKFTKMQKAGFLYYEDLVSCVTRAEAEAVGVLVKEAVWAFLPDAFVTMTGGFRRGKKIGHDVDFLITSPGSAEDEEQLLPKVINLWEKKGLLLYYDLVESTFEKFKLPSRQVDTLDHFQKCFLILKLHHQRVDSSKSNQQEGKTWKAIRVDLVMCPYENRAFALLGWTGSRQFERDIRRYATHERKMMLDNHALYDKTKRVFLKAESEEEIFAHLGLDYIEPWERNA
row,Sequence,TdT poly-dT extension signal
1,ACCGG,292 ± 21
2,GGUAA,574 ± 40
3,GAGCC,548 ± 66
4,UGGCU,361 ± 50
5,ACGC,911 ± 54
6,ACAAG,613 ± 60
7,CAUGU,374 ± 35
8,AGCC,544 ± 45
9,GAGCA,449 ± 27
10,UUGUC,354 ± 33
11,CGUCA,307 ± 18
12,GUGUU,234 ± 25
13,CAUUU,191 ± 17
14,GCCCG,205 ± 22
15,CUAA,687 ± 80
16,AUUAU,330 ± 49
17,CACG,339 ± 22
18,UAGAU,491 ± 41
19,ACCU,325 ± 29
20,CAGAA,1010 ± 91
21,UGUCC,422 ± 34
22,GGUAG,272 ± 28
23,CCUGC,1030 ± 75
24,UCCUU,350 ± 34

row,Sequence,TdT poly-dT extension signal
1,CACUA,633 ± 42
2,CAUAC,442 ± 26
3,AGAGG,439 ± 52
4,GCUCU,316 ± 25
5,CCAUU,359 ± 13
6,GUUUG,128 ± 16
7,CAGAU,477 ± 34
8,UUAUU,201 ± 16
9,UAUGA,393 ± 34
10,ACGUC,516 ± 40
11,GGAAU,503 ± 38
12,UUUCA,224 ± 24
13,AAGGG,368 ± 22
14,AUCU,280 ± 24
15,UUGAA,652 ± 41
16,UGAA,549 ± 44
17,CCAAG,590 ± 24
18,UACGG,384 ± 39
19,GCUCG,263 ± 19
20,CGGUU,300 ± 22
21,CUUA,341 ± 33
22,GACA,349 ± 28
23,GUUUU,266 ± 29
24,UGCUU,360 ± 22

row,Sequence,TdT poly-dT extension signal
1,GGCAU,577 ± 48
2,CAAAA,1140 ± 66
3,UAGCC,518 ± 31
4,CAGCA,560 ± 60
5,ACAC,728 ± 82
6,CCCCU,310 ± 14
7,UAACC,400 ± 29
8,CGUG,298 ± 26
9,AGCGC,712 ± 49
10,GCCAA,696 ± 70
11,CUGCG,284 ± 29
12,UGAG,343 ± 23
13,UGACA,314 ± 31
14,AGCGG,334 ± 25
15,AGCA,471 ± 31
16,GAACA,413 ± 46
17,UGUAC,414 ± 27
18,UUCAG,435 ± 29
19,UCGGC,929 ± 62
20,UUCGU,500 ± 42
21,GAUCU,317 ± 34
22,UAGG,328 ± 22
23,AAUCU,240 ± 14
24,AAAGU,535 ± 51

row,Sequence,TdT poly-dT extension signal
1,GCAA,841 ± 41
2,UCGGU,469 ± 22
3,GUAU,321 ± 25
4,AUAGC,990 ± 77
5,GUCCC,475 ± 28
6,AAUGG,219 ± 18
7,UCGCC,549 ± 35
8,UCUAA,714 ± 36
9,CUGU,401 ± 31
10,UAACG,256 ± 23
11,CAAAU,657 ± 54
12,AUUCG,157 ± 20
13,AGGUA,416 ± 27
14,CCUCC,490 ± 49
15,GCGGU,476 ± 29
16,AGCU,275 ± 22
17,AGGCG,244 ± 16
18,AUAGA,663 ± 47
19,AUGU,356 ± 29
20,UGCUG,224 ± 16
21,AGCUC,545 ± 48
22,CCCAA,1040 ± 63
23,UCUUC,315 ± 25
24,UGUGA,362 ± 29

row,Sequence,TdT poly-dT extension signal
1,UAACA,312 ± 21
2,UUCGA,389 ± 32
3,GUGGC,1080 ± 140
4,CAGU,512 ± 30
5,ACAUG,260 ± 18
6,CUUUA,300 ± 25
7,CUGAG,425 ± 37
8,GUAAA,978 ± 120
9,CACU,394 ± 58
10,GAGGG,362 ± 32
11,GAAU,468 ± 32
12,UGGUG,177 ± 11
13,ACAA,1060 ± 140
14,CCCUA,590 ± 52
15,CGAUU,247 ± 18
16,AUCC,396 ± 50
17,UUUGG,185 ± 15
18,ACCA,460 ± 37
19,UAUGC,1010 ± 88
20,CCCC,515 ± 31
21,UUUUC,317 ± 18
22,UCCCU,281 ± 21
